# Experimental data as given in PubChem BioAssay AID540317 (National Center for Advancing Translational Sciences (NCATS), 2011).
# About 2,200 (0.56%) of roughly 390,000 compounds were called active. Inconclusive results, whose numbers are uncertain, are shown with a selection of clear calls. The call rests on the fitted dose curve; in most records, active means well fitted inhibition curve with a large enough effect; inconclusive means small, poorly fitted or top-dose-only effect; inactive means no such curve, though single readings can be large or run the other way. Potencies of inconclusive entries are doubtful fits and often do not repeat.
# Biological target: Chromobox protein homolog 1 (Homo sapiens) (UniProt P83916)
# UniProt P83916, sequence (P83916 whole entry, looked up): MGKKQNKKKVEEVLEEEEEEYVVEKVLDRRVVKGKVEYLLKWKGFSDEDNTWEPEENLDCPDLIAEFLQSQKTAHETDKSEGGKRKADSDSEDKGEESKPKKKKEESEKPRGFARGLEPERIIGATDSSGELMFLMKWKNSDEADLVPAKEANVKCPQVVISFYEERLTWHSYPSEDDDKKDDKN
# Experiment: HTS for Inhibitors of HP1-beta Chromodomain Interactions with Methylated Histone Tails; further: nearly all actives have a fitted effect of over 70% in size
# Conditions: AlphaScreen HP1-beta / biotin-H3K9me3 peptide binding; series mostly up to 114 µM; activity change, negative = inhibition: at the top concentration
# Outline: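 AlphaScreen: HP1-beta (50 nM) preformed 30 min with biotin-H3(1-18)K9me3 peptide (50 nM) in PBS pH 7.4, 0.01% Tween-20. Compound added for 30 min at RT, then streptavidin donor/nickel chelate acceptor beads (10 ug/mL) for 30 min.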
# Potency means the concentration at half of the fitted maximal effect; tags describe the fitted curve by direction and shape.
SMILES,Potency,"activity change, negative = inhibition"
NS(=O)(=O)c1ccc(CCNC(=O)c2cncc(Br)c2)cc1,"inconclusive: 7.08 µM [inhibitor, single point]",–
Nc1nonc1-c1nc2ccccc2n1Cc1ccc(Cl)cc1,–,inactive: 19.3%
COc1ccc(OC)c(S(=O)(=O)NCC(c2ccco2)N2CCc3ccccc32)c1 (stereo unspecified),–,inactive: -33.6%
O=C(CN1CCCN(Cc2cccc(F)c2)S1(=O)=O)Nc1ccc2c(c1)OCCO2,–,inactive: 25.9%
CC1=C/C(=C(/c2cc(C)c(O)c(Br)c2)c2ccccc2S(=O)(=O)O)C=C(Br)C1=O,active: 31.6 µM,–
CC(=O)N1N=C(c2ccc([N+](=O)[O-])cc2)CC1c1ccccc1Cl (stereo unspecified),"inconclusive: 39.8 µM [inhibitor, partial curve, poor fit]",–
O=c1[nH]cc(S(=O)(=O)Nc2ccc3c(c2)OCO3)c(=O)[nH]1,–,inactive: 29.4%
O=[N+]([O-])c1cccc(-c2ccc(CN3CCN(c4ccccc4)CC3)o2)c1,"inconclusive: 50.1 µM [inhibitor, partial curve]",–
CC(=O)N=c1sc2nc3ccccc3nc2n1N(C(C)=O)C(C)=O,"inconclusive: 79.4 µM [inhibitor, single point]",–
CC(=O)c1ccccc1OCCCCN1CCCCC1,"inconclusive: 35.5 µM [inhibitor, partial curve, poor fit]",–
COc1ccc(C(=O)NC(=S)N2CC(C)OC(C)C2)cc1 (stereo unspecified),–,inactive: -3.13%
Cc1ccc(C(C)n2cc(C(=O)NCc3ccccn3)nn2)cc1 (stereo unspecified),–,inactive: 66.4%
c1coc(CNc2ncnc3c2oc2ccccc23)c1,–,inactive: -9.56%
S=c1[nH]nc(-c2ccc(Cl)cc2)n1/N=C/C=C/c1ccco1,"inconclusive: 14.1 µM [inhibitor, full curve]",–
CC1CCc2c(sc(NC(=O)COC(=O)C3CCCO3)c2C#N)C1 (stereo unspecified),–,inactive: 34%
COC(=O)c1c(NC(=S)NNS(=O)(=O)c2ccc(OC)cc2OC)sc2c1CCCCCC2,–,inactive: 16.6%
COc1ccc2c(c1)O/C(=C\c1ccco1)C2=O,"inconclusive: 56.2 µM [inhibitor, partial curve, poor fit]",–
O=c1oc2c(O)c(O)cc3c(=O)oc4c(O)c(O)cc1c4c23,"inconclusive: 1 µM [inhibitor, full curve]",–
O=[N+]([O-])c1ccc(CN2CCC(Cc3ccccc3)CC2)cc1,"inconclusive: 12.6 µM [inhibitor, partial curve, poor fit]",–
O=c1c2c(nc3c(-c4ccc(Cl)cc4)c[nH]n13)CCC2,"inconclusive: 89.1 µM [inhibitor, single point]",–
COc1cc(/C=N/NC(=O)COc2cccc(F)c2)ccc1OS(=O)(=O)c1ccc(C)cc1,"inconclusive: 28.2 µM [inhibitor, single point]",–
COc1cc2[nH]c(=S)nc(NCCc3ccc(C)cc3)c2cc1OC,–,inactive: 12.7%
COc1ccccc1Nc1ccc(S(=O)(=O)N2CCCCC2)cc1[N+](=O)[O-],"inconclusive: 15.8 µM [inhibitor, partial curve, poor fit]",–
Fc1ccc2[nH]c3c(NCc4ccco4)ncnc3c2c1,–,inactive: -19.6%

SMILES,Potency,"activity change, negative = inhibition"
Cc1cc(OCCN2CCOCC2)ccc1C(C)C,"inconclusive: 56.2 µM [inhibitor, single point]",–
CCOc1ccc(CNC(=O)Cn2nc(C)c3nn(-c4ccc(Cl)cc4)c(C)c3c2=O)cc1OC,–,inactive: 29.8% [at 57 µM]
NC1=NC[C@@H](Cc2ccc(O)cc2)N1CCCCC1CCCCC1,–,inactive: 16.7%
O=C(c1ccco1)N1CCN(S(=O)(=O)c2ccc(C3CCCCC3)cc2)CC1,–,inactive: 17.4%
O=[N+]([O-])c1cc(Cl)ccc1NCCc1ccccn1,"inconclusive: 44.7 µM [inhibitor, partial curve]",–
Cc1cccc(Nc2nc(N)c([N+](=O)[O-])c(N3CC(C)CC(C)C3)n2)c1 (stereo unspecified),"inconclusive: 39.8 µM [inhibitor, partial curve]",–
COc1ccccc1N1CCN(/N=C/c2cccc(OC)c2OC)CC1,"inconclusive: 50.1 µM [inhibitor, partial curve, poor fit]",–
Cc1nn(-c2ccccc2)c(C)c1/C=N/Nc1nc2ccccc2[nH]1,"inconclusive: 44.7 µM [inhibitor, partial curve]",–
O=C(CN1CCN(c2ncccn2)CC1)Nc1ccccc1-n1cccc1,"inconclusive: 50.1 µM [inhibitor, partial curve]",–
CC(C)(C)c1cc(OS(C)(=O)=O)ccc1O,"inconclusive: 39.8 µM [inhibitor, single point]",–
Cc1[nH][nH]c(=O)c1C(c1ccc([N+](=O)[O-])cc1)c1c(C)[nH][nH]c1=O,–,inactive: 16.6%
CCc1ccc2oc(-c3ccc(OC)cc3)cc(=Nc3c(C)n(C)n(-c4ccccc4)c3=O)c2c1,"inconclusive: 15.8 µM [inhibitor, full curve, poor fit]",–
Cc1sc(NC(=S)NC(=O)c2ccc(C(C)(C)C)cc2)c(C#N)c1C,–,inactive: -9.82%
O=C(CN1C(=O)NC(c2ccccc2)(c2ccccc2)C1=O)NCCc1ccc(F)cc1,–,inactive: -23.3%
N=c1nc(N)nc2n1NC(c1ccc(F)cc1)=CS2,–,inactive: 29.1%
C=CCn1c(COc2ccccc2)nnc1SC(C)C(=O)N/N=C/c1cc(Cl)ccc1O (stereo unspecified),"inconclusive: 22.4 µM [inhibitor, full curve, poor fit]",–
Cc1ccc(CN2CCN(c3ncccn3)CC2)c(C)c1,"inconclusive: 14.1 µM [inhibitor, full curve, poor fit]",–
COc1ccc(NS(=O)(=O)c2cccc(C(=O)N/N=C(\C)c3cccnc3)c2)cc1,–,inactive: 37.5%
c1ccc(OCc2nnc3n2N=C(c2ccccc2)CS3)cc1,"inconclusive: 28.2 µM [inhibitor, partial curve]",–
COCCNC(=S)c1ccc(Br)cc1,"inconclusive: 15.8 µM [inhibitor, full curve, poor fit]",–
Cc1ccc(-n2cc(S(=O)(=O)c3ccc(C)cc3)[nH]c2=O)cc1,"inconclusive: 22.4 µM [inhibitor, full curve]",–
CCOC(=O)c1cnc(-n2nc(C)cc2C)[nH]c1=O,–,inactive: 36.2%
Cc1cc(OCCCSc2nc(-c3ccc(C(C)(C)C)cc3)nc3cc(=O)[nH]n23)ccc1Cl,"inconclusive: 70.8 µM [inhibitor, partial curve]",–
NC(=S)c1ccc[n+]([O-])c1,"inconclusive: 15.8 µM [inhibitor, partial curve, poor fit]",–

SMILES,Potency,"activity change, negative = inhibition"
O=C(COc1cc2oc(=O)c3c(c2cc1Cl)CCCC3)NCC1CCC(C(=O)O)CC1 (stereo unspecified),–,inactive: 33.7%
CC(C)(C)c1ccc(C(=O)CCC(=O)OCC(=O)NCCc2ccc(S(N)(=O)=O)cc2)cc1,–,inactive: 18.3%
COc1ccc(N=C2C(=O)Nc3ccc(C)c(Br)c32)cc1,"inconclusive: 5.01 µM [inhibitor, full curve]",–
COc1cc(O)c(C(CCN2CCCCC2)c2ccc(N(C)C)cc2)c(OC)c1 (stereo unspecified),"inconclusive: 39.8 µM [inhibitor, full curve, poor fit]",–
COc1cc(-c2noc(C3CC(=O)N(c4ccc5c(c4)OCCO5)C3)n2)cc(OC)c1OC (stereo unspecified),"inconclusive: 79.4 µM [inhibitor, partial curve, poor fit]",–
COc1ccc(OCC#CCNC(C)(C)C)cc1,"inconclusive: 28.2 µM [inhibitor, single point]",–
CC1=NNC(=O)/C1=C\c1cn(-c2ccccc2)nc1-c1ccccc1,"inconclusive: 15.8 µM [inhibitor, partial curve, poor fit]",–
Cc1nn(-c2ccccc2)c(N2CCCC2)c1/C=N/NC(=O)c1ccccc1O,–,inactive: 16.1%
O=[N+]([O-])c1cccc(-c2ccc(/C=N/NC(=S)Nc3cccc(F)c3)o2)c1,"inconclusive: 35.5 µM [inhibitor, partial curve]",–
O=[N+]([O-])c1cccc(/C=N/N2CCN(c3ccccn3)CC2)c1,"inconclusive: 56.2 µM [inhibitor, partial curve, poor fit]",–
CSCCC(NC(=O)COc1ccccc1)C(=O)N1CCN(c2ccccc2O)CC1 (stereo unspecified),–,inactive: 2.81%
O=C(COC(=O)c1cc(Cl)ccc1[N+](=O)[O-])NCc1ccc(Cl)cc1Cl,"inconclusive: 39.8 µM [inhibitor, partial curve]",–
O=C1C=C(N2CCN(c3ccccn3)CC2)C(=O)c2c(O)ccc(O)c21,"inconclusive: 56.2 µM [inhibitor, partial curve, poor fit]",–
CC1CN(CCCOc2ccc([N+](=O)[O-])cc2)CC(C)O1 (stereo unspecified),"inconclusive: 7.08 µM [inhibitor, partial curve, poor fit]",–
CCS(=O)(=O)c1ccccc1C(=O)N(Cc1cccnc1)c1nc2cc(C)c(C)cc2s1,–,inactive: 23.5%
CCCCCCCC(=O)Nc1cc(C(=O)NCCC)ccc1N1CCC2(CC1)CC(c1cccc(Br)c1)=NO2,–,inactive: 35.1%
c1ccc(-c2ccccc2OCCN2CCCC2)cc1,"inconclusive: 28.2 µM [inhibitor, partial curve]",–
COc1cc(CNCc2ccc(Br)cc2)cc(OC)c1,"inconclusive: 11.2 µM [inhibitor, partial curve, poor fit]",–
COCCNc1nnc(SCC(=O)NNC(=O)c2ccccc2)s1,"inconclusive: 39.8 µM [inhibitor, partial curve]",–
COC(=O)c1cc(C#N)c(SCc2ccccc2)nc1C,–,inactive: 249%
COc1cc2c(cc1OC)/C(=C/C(=O)c1ccccc1F)NCC2,"inconclusive: 79.4 µM [inhibitor, single point]",–
O=C(CSc1ccccc1)NCc1ccccn1,"inconclusive: 39.8 µM [inhibitor, single point]",–
CCCOc1ccc(OCCCCNC(C)CC)cc1 (stereo unspecified),"inconclusive: 44.7 µM [inhibitor, partial curve]",–
